No constants are given. Whether binding was seen depends on the method and setting. In cells and extracts the contact can be indirect. Some results given as binding are weak or reduced against the parent protein; the word gives no strength.
Legend:
[1] = target: ICP27 of wild type HSV-1 strain KOS, in infected cells (HSV-1 strain KOS) (UniProt P10238); assay: co-IP; RSF cells transfected with GFP control, GFP-Hsc70 or GFP-Hsc70K71M, 24 h later infected with WT HSV-1 for 8 h; immunoprecipitation with anti-ICP27 antibody, blot probed with anti-GFP and anti-Hsc70 antibodies
[2] = target: ICP27 of wild type HSV-1 strain KOS, in infected cells (HSV-1 strain KOS) (UniProt P10238); assay: co-IP; HeLa cells infected with WT or ICP27 mutant HSV-1 (moi 10), nuclear extracts at 6 h; immunoprecipitation with anti-ICP27 monoclonal antibody, Western blot with anti-Hsc70 antibody
GST-Hsc70 (1-540) = GST-Hsc70 (1-540) (UniProt P19120); assay: pull-down; 10 µl Glutathione-Sepharose-bound GST-Hsc70 proteins with 10 µl in vitro translation reaction of 35S-methionine labeled ICP27, room temperature, beads washed four times, SDS-PAGE; only the target purified
GST-Hsc70 (373-540) = GST-Hsc70 (373-540) (UniProt P19120); assay: as above
GST-Hsc70 (373-650) = GST-Hsc70 (373-650) (UniProt P19120); assay: as above
GST-Hsc70 (540-650) = GST-Hsc70 (540-650) (UniProt P19120); assay: as above

Amino acid sequences for entries named in this document (tags omitted). A change or cut given only in a name is not applied to a line headed by its entry. Residues count along the entry.
GST-Hsc70 (1-540) (P19120, residues 1-540): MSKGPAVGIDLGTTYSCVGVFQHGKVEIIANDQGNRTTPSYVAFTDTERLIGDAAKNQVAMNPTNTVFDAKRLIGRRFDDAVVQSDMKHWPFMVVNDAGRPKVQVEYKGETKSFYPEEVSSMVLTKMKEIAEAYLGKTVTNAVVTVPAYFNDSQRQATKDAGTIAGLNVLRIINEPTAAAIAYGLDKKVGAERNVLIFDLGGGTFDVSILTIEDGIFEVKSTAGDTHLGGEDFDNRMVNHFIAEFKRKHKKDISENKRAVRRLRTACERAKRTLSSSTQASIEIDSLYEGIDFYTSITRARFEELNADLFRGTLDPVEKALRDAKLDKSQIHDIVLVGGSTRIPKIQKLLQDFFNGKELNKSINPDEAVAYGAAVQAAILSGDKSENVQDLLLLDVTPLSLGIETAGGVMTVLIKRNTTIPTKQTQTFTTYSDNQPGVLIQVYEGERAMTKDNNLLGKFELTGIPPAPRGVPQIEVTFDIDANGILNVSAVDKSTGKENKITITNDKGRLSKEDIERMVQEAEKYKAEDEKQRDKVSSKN
GST-Hsc70 (373-650) (P19120, residues 373-650): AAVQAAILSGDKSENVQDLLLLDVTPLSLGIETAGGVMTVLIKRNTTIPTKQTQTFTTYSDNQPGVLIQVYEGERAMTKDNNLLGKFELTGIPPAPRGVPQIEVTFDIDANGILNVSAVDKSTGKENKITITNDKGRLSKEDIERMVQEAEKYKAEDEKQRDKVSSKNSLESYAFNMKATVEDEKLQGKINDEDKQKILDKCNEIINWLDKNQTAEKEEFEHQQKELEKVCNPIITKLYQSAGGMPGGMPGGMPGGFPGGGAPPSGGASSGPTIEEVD
GST-Hsc70 (373-540) (P19120, residues 373-540): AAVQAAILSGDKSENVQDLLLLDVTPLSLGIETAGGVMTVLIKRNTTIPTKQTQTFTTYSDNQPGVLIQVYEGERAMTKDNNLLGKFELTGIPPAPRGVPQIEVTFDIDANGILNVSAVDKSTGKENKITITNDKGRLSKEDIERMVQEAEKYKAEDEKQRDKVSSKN
GST-Hsc70 (540-650) (P19120, residues 540-650): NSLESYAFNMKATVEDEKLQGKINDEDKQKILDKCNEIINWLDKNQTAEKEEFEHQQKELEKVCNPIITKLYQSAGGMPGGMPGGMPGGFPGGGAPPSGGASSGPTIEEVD
UniProt P11142: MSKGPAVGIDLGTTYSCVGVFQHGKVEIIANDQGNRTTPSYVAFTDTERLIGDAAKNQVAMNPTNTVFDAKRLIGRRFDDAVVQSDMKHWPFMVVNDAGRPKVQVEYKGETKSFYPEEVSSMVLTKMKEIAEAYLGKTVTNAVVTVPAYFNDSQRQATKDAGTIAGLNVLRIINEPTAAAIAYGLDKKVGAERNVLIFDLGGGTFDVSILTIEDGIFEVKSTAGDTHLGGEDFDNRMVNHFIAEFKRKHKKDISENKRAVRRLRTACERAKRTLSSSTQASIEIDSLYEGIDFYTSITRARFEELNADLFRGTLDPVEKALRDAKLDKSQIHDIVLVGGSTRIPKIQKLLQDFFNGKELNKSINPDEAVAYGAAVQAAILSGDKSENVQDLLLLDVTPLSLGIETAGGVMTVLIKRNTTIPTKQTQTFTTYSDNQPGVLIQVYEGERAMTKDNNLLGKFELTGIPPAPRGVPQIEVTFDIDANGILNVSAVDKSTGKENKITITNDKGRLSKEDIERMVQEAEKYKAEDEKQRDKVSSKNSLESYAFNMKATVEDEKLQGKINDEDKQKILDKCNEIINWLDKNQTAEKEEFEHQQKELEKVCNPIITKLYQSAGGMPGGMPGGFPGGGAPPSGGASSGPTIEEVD

Substance | binding [1] | binding (GST-Hsc70 (1-540)) | further results
GFP-tagged Hsc70 (from UniProt P11142 1-646) | binds | – | –
endogenous Hsc70 of HeLa cells (from UniProt P11142 1-646) | – | – | binding [2]: binds
GFP-tagged Hsc70 K71M (from UniProt P11142 1-646) | no binding | – | –
ICP27 deletion mutant ΔC, in vitro translated (from UniProt P10238 1-449) (domain or fragment) | – | no binding | –
wild type ICP27, in vitro translated (from UniProt P10238 1-512) | – | binds | binding (GST-Hsc70 (373-540)): no binding; binding (GST-Hsc70 (373-650)): no binding; binding (GST-Hsc70 (540-650)): no binding

From paper PMC2200795
